Assay results reported in PubChem BioAssay AID624418 (National Center for Advancing Translational Sciences (NCATS), 2012).
Out of some 410,000 compounds screened, about 530 (0.13%) were called active. Inconclusive results, whose numbers are uncertain, are shown with a selection of clear calls. Calls come from the whole dose curve; as a rule, active = well fitted inhibition curve with a large enough effect; inconclusive = small, poorly fitted or top-dose-only effect, or another doubt; inactive = no such curve, though single readings can be large or run the other way. A potency beside an inconclusive call is a rough fit, not a confirmed value.
Potency is the fitted concentration of half-maximal effect.

Test: qHTS of GLP-1 Receptor Inverse Agonists: Cytotox Screen
Details: HEK293 cAMP-luciferase reporter cells, luminescence, 24 h; series mostly up to 38.3 µM
Summary of the method: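 A 23 nL compound transfer followed 12 hours of cell culture at 37 deg C; exposure then lasted 24 hr. Luciferase assay detection reagent was dispensed and plates read for luminescence after a 12 min room-temperature wait.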
With `CCOc1ccc(-c2csc(Cn3c(CN4CCN(C)CC4)nc4ccccc4c3=O)n2)cc1` the Potency was inconclusive: 10 µM [inhibitor, partial curve]. For `COc1ccc(/C=C/CN2CCCC(CO)(Cc3cccc(Cl)c3)C2)cc1` (stereo unspecified), the Potency was inconclusive: 10 µM [inhibitor, partial curve]. With `CCN(CC)C(=O)Cn1cc(C(=O)C(=O)N2CCN(c3ccc([N+](=O)[O-])cc3)CC2)c2ccccc21` the Potency was inconclusive: 12.6 µM [inhibitor, partial curve, poor fit]. In the case of `O=C(O)c1ccc2c(=O)[nH]c(CCl)nc2c1`, the Potency was “inactive”. For `O=C(c1cccnc1)N1CCN(Cc2ccccc2Br)CC1`, the Potency was “inactive”. In the case of `O=S(=O)(N/N=C1/CC(c2ccccc2)Oc2ccccc21)c1ccc(Br)cc1` (stereo unspecified), the Potency was inconclusive: 10 µM [inhibitor, partial curve, poor fit]. For `O=C(c1ccccc1F)N1CCC2CC1c1cc(-c3ccc4c(c3)OCO4)ccc12` (stereo unspecified), the Potency was “inactive”. For `CN(CCC#N)C(=S)NC(=O)c1ccc(S(=O)(=O)N2CCOCC2)cc1`, the Potency was “inactive”. For `O=S(=O)(c1ccc(OCC2CO2)cc1)c1ccc(OCC2CO2)cc1` (stereo unspecified), the Potency was inconclusive: 6.31 µM [inhibitor, partial curve, poor fit]. In the case of `NC(=S)NN=C1CCCCCCCCCC1`, the Potency was inconclusive: 5.62 µM [inhibitor, full curve, poor fit]. In the case of `CN1CCN(CCCNC(=O)c2ccc3c(c2)N(Cc2ccc(F)cc2)CCS3)CC1`, the Potency was “inactive”. In the case of `CCOc1ccc(C2c3[nH]c4ccccc4c3C[C@H]3C(=O)N(C4CCN(Cc5ccccc5)CC4)CC(=O)N23)cc1OC` (stereo partly specified), the Potency was “inactive”. With `COc1cccc2sc(N(CCCN(C)C)C(=O)c3ccc(S(=O)(=O)N4CCCc5ccccc54)cc3)nc12` the Potency was inconclusive: 10 µM [inhibitor, partial curve, poor fit]. For `CCCn1c2ccccc2c2cnn(CC(=O)N(CCCOC(C)C)Cc3ccco3)c(=O)c21`, the Potency was inconclusive: 28.2 µM [inhibitor, single point]. With `Cc1ccc(NS(=O)(=O)c2ccc(NC(=O)c3cccs3)cc2)c(C)c1` the Potency was “inactive”. For `CCCCc1c(C)nn(-c2nnc3c4ccccc4n(C)c3n2)c1C`, the Potency was inconclusive: 10 µM [inhibitor, single point]. For `O=C(Nc1ccc(Cl)cc1)Nc1csc([N+](=O)[O-])c1`, the Potency was inconclusive: 2.82 µM [inhibitor, full curve, poor fit]. In the case of `O=C(CCc1nc2ccccc2c(=O)[nH]1)Nc1cc(Cl)ccc1N1CCCCC1`, the Potency was inconclusive: 12.6 µM [inhibitor, partial curve, poor fit]. In the case of `COc1ccc(C(=O)Nc2ccccc2N2CCOCC2)cc1S(=O)(=O)N1CCOCC1`, the Potency was “inactive”. For `COC(=O)C(=C/C(C)=C/c1cccnc1)C(=O)OC`, the Potency was inconclusive: 12.6 µM [inhibitor, single point]. In the case of `Cc1nc2c(c(C)nn2-c2ccccc2)c(C)c1CCC(=O)Nc1ccc(CN2CCCC2)cc1`, the Potency was inconclusive: 28.2 µM [inhibitor, partial curve, poor fit]. For `CCS(=O)(=O)c1ncc(Cl)c(C(=O)N(Cc2ccccc2)Cc2ccco2)n1`, the Potency was inconclusive: 7.94 µM [inhibitor, partial curve, poor fit]. With `Cc1ccc(OCCNC(=O)c2cccc(S(=O)(=O)NCc3ccccc3)c2)cc1` the Potency was inconclusive: 3.98 µM [inhibitor, full curve]. In the case of `COc1cccc(S(=O)(=O)NCc2ccc(C(=O)Nc3cccc(Cl)c3)cc2)c1`, the Potency was inconclusive: 11.2 µM [inhibitor, single point]. With `CCCC(NC(=O)CCc1c(C)c2cc3c4c(oc3c(C)c2oc1=O)CCCC4)C(=O)O` (stereo unspecified) the Potency was “inactive”. For `NC(=O)CC(NC(=O)c1ccccc1)c1ccc(NCCOc2ccccc2)c([N+](=O)[O-])c1` (stereo unspecified), the Potency was inconclusive: 0.501 µM [inhibitor, full curve]. For `C/C(=N/NC(=O)c1cccs1)c1c(C)[nH]n(-c2nc3ccccc3s2)c1=O`, the Potency was inconclusive: 0.501 µM [inhibitor, full curve, poor fit]. For `CCOC(=O)CNC(=O)c1ccc(C#CC2(O)CCCCC2)cc1`, the Potency was “inactive”. In the case of `O=C1C=C(Nc2ccc(Cl)cc2Cl)CC(c2ccco2)C1` (stereo unspecified), the Potency was inconclusive: 8.91 µM [inhibitor, partial curve, poor fit]. For `O=C(NC(=S)Nc1cccc2ncccc12)c1ccccc1`, the Potency was inconclusive: 14.1 µM [inhibitor, single point]. For `CC(C)=CCc1c(O)ccc(C(=O)Cc2ccccc2)c1O`, the Potency was inconclusive: 28.2 µM [inhibitor, single point]. For `COc1ccccc1CN1C2CCCC1CC(NC(=O)/C=C/c1ccccc1)C2` (stereo unspecified), the Potency was inconclusive: 11.2 µM [inhibitor, single point]. For `Cc1ccc(N2CC(c3nnc(Cc4ccc(F)cc4Cl)o3)CC2=O)cc1` (stereo unspecified), the Potency was “inactive”. With `COC(=O)[C@H](C)NC(=O)Nc1ccccc1C(F)(F)F` the Potency was “inactive”. In the case of `CC(C)(C)C(=O)Cn1ncc(Br)c(Br)c1=O`, the Potency was inconclusive: 28.2 µM [inhibitor, single point]. In the case of `N/C(=N\OC(=O)c1cccc(F)c1)c1ccccn1`, the Potency was “inactive”. With `CN(C(=O)c1ccc(NC(=O)Cc2ccc(NC(=O)C3CCN(C(=O)C4CCC4)CC3)cc2)cc1)C1CC1` the Potency was inconclusive: 10 µM [inhibitor, single point]. For `CCOc1ccc(NC(=O)CC2C(=O)N(c3ccc(OC)c(Cl)c3)C(=S)N2C2CC2)cc1` (stereo unspecified), the Potency was inconclusive: 28.2 µM [inhibitor, single point]. In the case of `O=C(Nc1nccs1)c1ccccc1N=Cc1ccccc1`, the Potency was “inactive”. In the case of `C[C@H]1CN([C@@H](C)CO)C(=O)c2c(c3ccccc3n2C)-c2ccccc2CO[C@H]1CN(C)Cc1cccc(F)c1`, the Potency was inconclusive: 28.2 µM [inhibitor, single point]. For `CCOc1cc(/C=N/NC(=O)c2cccnc2)ccc1O`, the Potency was “inactive”. In the case of `CCN(CC)c1ccc2nc3ccc(N)cc3[n+](-c3ccccc3)c2c1`, the Potency was inconclusive: 10 µM [inhibitor, partial curve, poor fit]. For `C[C@H](O)[C@@H]1C(=O)N2CCc3c([nH]c4ccccc34)[C@@H]2C[C@@H]1N(C)C(=O)Nc1cc(Cl)cc(Cl)c1`, the Potency was “inactive”. For `O=C(Nc1ccccc1N1CCN(C(=O)c2ccccc2)CC1)c1ccc(Cl)cc1`, the Potency was inconclusive: 10 µM [inhibitor, single point]. With `FC(F)(F)c1cccc(N2CCN(C(=S)NC3CCCC3)CC2)c1` the Potency was inconclusive: 28.2 µM [inhibitor, single point]. In the case of `O=C(COC(=O)c1ccc2c(c1[N+](=O)[O-])C(=O)c1ccccc1C2=O)NC1CC1`, the Potency was inconclusive: 11.2 µM [inhibitor, partial curve, poor fit]. For `CCCc1cc(NC(=O)CCl)n(-c2ccccc2)n1`, the Potency was inconclusive: 10 µM [inhibitor, partial curve, poor fit]. In the case of `O=C(CCN1C(=O)/C(=C/c2ccccc2Cl)SC1=S)NC1CCS(=O)(=O)C1` (stereo unspecified), the Potency was inconclusive: 28.2 µM [inhibitor, single point]. In the case of `COc1ccc(CC2(CO)CCN(C(C)Cc3ccc(Cl)cc3)CC2)cc1` (stereo unspecified), the Potency was inconclusive: 28.2 µM [inhibitor, single point]. For `COCCNC(=O)CSc1ccccc1C(=O)NC1CCCc2ccccc21` (stereo unspecified), the Potency was inconclusive: 0.501 µM [inhibitor, full curve, poor fit]. With `CCOc1cc(S(=O)(=O)n2cc(-c3ccc(F)cc3)c(N)n2)cc(OCC)c1OCC` the Potency was inconclusive: 12.6 µM [inhibitor, single point]. For `Cc1cc(=O)oc2ccc(OCC(=O)N(Cc3ccc(F)cc3)Cc3ccco3)cc12`, the Potency was inconclusive: 14.1 µM [inhibitor, single point]. In the case of `Cc1ccc(N(NC(=O)C(O)(c2ccccc2)c2ccccc2)C(=O)CCl)cc1`, the Potency was inconclusive: 10 µM [inhibitor, partial curve, poor fit]. For `O=C(/C=C/c1ccco1)Nc1ccc(CN2CCOCC2)cc1`, the Potency was “inactive”. For `NC(=NCCc1c[nH]c2ccccc12)NC(=O)c1ccc(Cl)cc1`, the Potency was inconclusive: 28.2 µM [inhibitor, single point]. For `O=C(COC(=O)CCCN1C(=O)c2cccc3cccc(c23)C1=O)Nc1cccc(C(F)(F)F)c1`, the Potency was “inactive”. For `Cc1ccc(C)c(Cn2c3ccccc3c3cnn(CC(=O)NCCCN4CCCCC4)c(=O)c32)c1`, the Potency was inconclusive: 28.2 µM [inhibitor, single point]. With `CC(=O)N1N=C(c2ccccc2)CC1c1ccccc1[N+](=O)[O-]` (stereo unspecified) the Potency was “inactive”. For `O/N=C1\CCCc2ccc(Cl)cc21`, the Potency was “inactive”. For `Cc1ccc(S(=O)(=O)N2C[C@H]3C(=O)C[C@@H](c4ccc(Cl)cc4)N(S(=O)(=O)c4ccccc4C)[C@H]3C[C@H]2c2ccccc2)cc1`, the Potency was “inactive”. In the case of `CC=CC1OCC(CC)C(CCC)O1` (stereo unspecified), the Potency was “inactive”. With `COc1ccc(CNC(=O)/C=C/c2ccccc2[N+](=O)[O-])cc1` the Potency was “inactive”. In the case of `C=C1CCC[C@]2(C)C[C@H]3OC(=O)C(CN(C)CC(OC)OC)[C@H]3CC12` (stereo partly specified), the Potency was inconclusive: 10 µM [inhibitor, partial curve]. With `Cc1cccc(C(=O)N2CCN(c3ccc([N+](=O)[O-])c(NCc4ccco4)c3)CC2)c1` the Potency was inconclusive: 28.2 µM [inhibitor, single point]. For `COc1ccccc1NC(=O)CCN1CCC(C(N)=O)CC1`, the Potency was “inactive”. In the case of `Cc1ccc(N(CC(=O)NCc2ccc(F)cc2)S(=O)(=O)c2cccs2)cc1`, the Potency was inconclusive: 15.8 µM [inhibitor, partial curve, poor fit].
